# Values joined by “and” are separate entries in the source; they are usually repeats but may differ in a detail not shown here. Equal entries are not always repeated. Inconclusive means that the source gave no clear call. Such entries were picked first, then a sample of the others. Where the call is inconclusive, the potency comes from a doubtful curve fit. Where a structure was tested more than once in an assay, its records may differ in their call. Active and inactive are the calls of the source. Calls follow the shape of the dose curve; as a rule, active = well fitted cell-killing curve with a large enough effect in the repeat runs; inconclusive = weak or mixed curves, or effect the other way; inactive = no such curve, though single readings can be large or run the other way.
# Assay: Caspase-3/7 induction in CHO-K1 cells by small molecules, qHTS cell viability counter screen (AID 1346979); also: nearly all actives have a fitted effect of over 35% in size
# Conditions: CellTiter-Fluor fluorescence, 17 h; series mostly up to 92.4 µM
# From the text: National Center for Advancing Translational Sciences [NCATS]
# NIH Chemical Genomics Center [NCGC]
# U.S. Environmental Protection Agency [EPA]
# National Institutes of Environmental Health Sciences [NIEHS]
# National Toxicology Program [NTP]
# U.S. Food and Drug Administration [FDA]
# Apoptosis is a process of programmed cell death and plays a central role in the development of multicellular organisms. It is a highly regulated process and induces cell death by activating caspases, which are the members of cysteine aspartic acid-specific protease (caspase) family. Caspases involved in apoptosis are classified by their mechanism of action as initiator caspases (caspase-2, -8, -9 and -10) and executioner caspases (caspase-3, -6, and -7). Inhibition of apoptosis results in number of cancers, autoimmune diseases, inflammatory diseases and viral infection. To identify small molecule compounds that induce apoptosis, a homogeneous, luminescent Caspase-Glo 3/7 assay was used. Wild type CHO-K1 cells were used to screen Tox21 libraries for identifying caspase-3/7 activity inducers. Also cytotoxicity of the compounds was tested in parallel by measuring the cell viability using CellTiter-Fluor assay system in the same wells.
# Tox21 Assay Protocol Summary:
# CHO-K1 cells were dispensed at 1,500 per well in 5uL of culture medium into white solid bottom 1536-well plates (Corning Life Sciences, Corning, NY) using a Multidrop Combi (Thermo Scientific, Waltham, MA) dispenser. The assay plates were incubated at 37 C and 5% CO2 for 5hr, and then 23nL of compounds dissolved in DMSO and positive control were transferred using a Pintool station (Wako, San Diego, CA). The assay plates were incubated at 37C and 5% CO2 for 17hr. For cytotoxicity read, after 16hr incubation at 37C, 1uL CellTiter-Fluor reagent (Promega Corporation, Madison, WI) was added to each well of the assay plates using Flying Reagent Dispenser (FRD, Aurora Discovery, San Diego, CA). After 1hr incubation at 37C and 5% CO2, the fluorescence signal was quantified using a ViewLux plate reader (PerkinElmer, Shelton, CT).
# Potency is read from the fitted curve at half-maximal effect; tags tell the direction and shape of the fitted curve.
row,Compound,Potency
1,O=c1[nH]sc2cc(Cl)ccc12,active: 26.6 µM
2,CN(C)c1ccc(C2(c3ccc(N(C)C)cc3)OC(=O)c3cc(N(C)C)ccc32)cc1,"inconclusive: 68.4 µM [cytotoxic, single point]"
3,Cc1ccc(C(=O)c2cc(O)c(O)c([N+](=O)[O-])c2)cc1,"active: 43.3 µM and inconclusive: 33.5 µM [cytotoxic, single point]"
4,CCCCCCC/C=C/C=O,inactive
5,c1ccc(C(O[C@@H]2CCCN(CCc3ccc4c(c3)OCO4)C2)c2ccccc2)cc1,"inconclusive: 68.6 µM [cytotoxic, single point]"
6,Oc1ccc(Sc2ccc(O)cc2)cc1,"inconclusive: 72 µM [cytotoxic, single point]"
7,O=CC(=O)c1ccccc1,"inconclusive: 68.7 µM [cytotoxic, single point]"
8,O=C(O)Cc1cn(-c2ccccc2)nc1-c1ccc(Cl)cc1,"inconclusive: 33.5 µM [cytotoxic, single point]"
9,C[C@@]12C(=O)OC(=O)[C@]1(C)C1CCC2O1,active: 10.6 µM
10,CCOc1ccc2c(c1)C(C)=CC(C)(C)N2,"inconclusive: 68.2 µM [cytotoxic, single point] and inconclusive: 68.6 µM [cytotoxic, single point]"
11,CC(CNC1CCCCC1)OC(=O)c1ccccc1 (stereo not given),inactive
12,Cc1c(O)cccc1C(=O)N[C@@H](CSc1ccccc1)[C@H](O)CN1C[C@H]2CCCC[C@H]2C[C@H]1C(=O)NC(C)(C)C,active: 5.95 µM and active: 10.6 µM
13,CC(C)OC(=O)c1cc(C(=O)OC(C)C)cc([N+](=O)[O-])c1,"inconclusive: 70.2 µM [cytotoxic, single point]"
14,Cc1cc(C)nc(NS(=O)(=O)c2ccc(N)cc2)n1,"inconclusive: 33.5 µM [rising, partial curve, poor fit]"
15,CC(=O)[C@H]1CC[C@H]2[C@@H]3CCC4=CC(=O)CC[C@]4(C)[C@H]3CC[C@]12C,active: 54.2 µM and active: 48.6 µM
16,CN(C(=O)CN(CCO)CC(=O)N(C)C(C)(C)Cc1ccccc1)C(C)(C)Cc1ccccc1,"inconclusive: 33.5 µM [cytotoxic, single point]"
17,C/C=C/C=C/C(=O)O,"inconclusive: 68.6 µM [cytotoxic, single point]"
18,CN1C[C@H](C(=O)N[C@]2(C)O[C@@]3(O)[C@@H]4CCCN4C(=O)[C@H](Cc4ccccc4)N3C2=O)C[C@@H]2c3cccc4[nH]cc(c34)C[C@H]21,active: 26.6 µM
19,CC(=O)O[C@]1(C(C)=O)CC[C@H]2[C@@H]3C=C(Cl)C4=CC(=O)CC[C@]4(C)[C@H]3CC[C@@]21C,active: 61 µM and inconclusive: 33.5 µM [cytotoxic]
20,NCCNCCO,inactive

row,Compound,Potency
1,COc1cc(N)c(Cl)cc1C(=O)NC1CCN(CCCOc2ccc(F)cc2)CC1OC (stereo not given),"inconclusive: 29.8 µM [cytotoxic, single point]"
2,NC(=O)c1ccccc1O,"inconclusive: 37.5 µM [rising, partial curve, poor fit]"
3,O=C(O)Cc1cc(I)c(Oc2cc(I)c(O)c(I)c2)c(I)c1,"inconclusive: 47.6 µM [cytotoxic, single point]"
4,OCCOCCOCCOCCOCCO,active: 15.7 µM
5,O=C(Nc1ccc2c(O)c(N=Nc3ccc(N=Nc4ccc(S(=O)(=O)O)cc4)cc3)c(S(=O)(=O)O)cc2c1)c1ccccc1,active: 15.4 µM
6,CCCCCCCCOc1ccccc1C(=O)Nc1ccc(C(=O)OCC[N+](C)(CC)CC)cc1,"inconclusive: 33.5 µM [cytotoxic, single point]"
7,COc1ccccc1N1CCN(CC(O)COc2cccc3ccccc23)CC1 (stereo not given),"inconclusive: 33.5 µM [cytotoxic, single point]"
8,CCCCCCCCOc1ccc(C(=O)O)cc1,"inconclusive: 67.8 µM [cytotoxic, single point]"
9,C=C[C@H]1CN2CC[C@H]1C[C@@H]2[C@@H](O)c1ccnc2ccc(OC)cc12,inconclusive: 60.1 µM [cytotoxic]
10,Cn1cnc2ncnc(N)c21,inactive
11,C1CCC(C(CC2CCCCN2)C2CCCCC2)CC1 (stereo not given),"inconclusive: 33.5 µM [cytotoxic, single point]"
12,S=C1NC=NC2N=CNC12 (stereo not given),inconclusive: 61.1 µM [cytotoxic]
13,CC(=O)CC(=O)Nc1ccc2[nH]c(=O)[nH]c2c1,inactive
14,CC(C)(C)CC(C)(C)c1ccc(O)c(-n2nc3ccccc3n2)c1,"inconclusive: 69.6 µM [cytotoxic, single point]"
15,CC#C[C@]1(O)CC[C@H]2[C@@H]3CCC4=CC(=O)CCC4=C3[C@@H](c3ccc(N(C)C)cc3)C[C@@]21C,"inconclusive: 33.5 µM [cytotoxic, single point]"
16,O=C(Oc1ccccc1)c1cccc(C(=O)Oc2ccccc2)c1,active: 51.2 µM
17,Nc1ccc(S(=O)(=O)NCc2ccccc2)cc1,inactive
18,CS(=O)(=O)OCCCCOS(C)(=O)=O,"inconclusive: 15.4 µM [cytotoxic, single point]"
19,O=C(O)Cn1c(=O)n(Cc2ccc(Br)cc2F)c(=O)c2ccc(Cl)cc21,"inconclusive: 68.6 µM [cytotoxic, single point] and inconclusive: 37.6 µM [cytotoxic, single point]"
20,CCOC(=O)c1ccccc1C(=C1C=C(Br)C(=O)C(Br)=C1)c1cc(Br)c(O)c(Br)c1,"inconclusive: 57.5 µM [cytotoxic, single point]"
